Laboratory results: PMC6919601, “Identification of Plasmodium dipeptidyl aminopeptidase allosteric inhibitors by high throughput screening” (PLoS ONE, 2019)
The campaign covered roughly 110,000 compounds. About 230 (0.21%) showed an effect of 50% or more. The list shows a part of the results.

Each compound was assayed against DPAP1 (Plasmodium falciparum, UniProt Q8IIJ9) (assay: primary screen, percent inhibition; read by cleavage of a fluorogenic dipeptide substrate; higher = more effect of the substance).
Set-up: species or system P. falciparum D10 trophozoite lysates; single well
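Further: 30 min substrate incubation versus DMSO and 10 µM JCP410 controls.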

Sequence of DPAP1 (Q8IIJ9 whole entry, looked up): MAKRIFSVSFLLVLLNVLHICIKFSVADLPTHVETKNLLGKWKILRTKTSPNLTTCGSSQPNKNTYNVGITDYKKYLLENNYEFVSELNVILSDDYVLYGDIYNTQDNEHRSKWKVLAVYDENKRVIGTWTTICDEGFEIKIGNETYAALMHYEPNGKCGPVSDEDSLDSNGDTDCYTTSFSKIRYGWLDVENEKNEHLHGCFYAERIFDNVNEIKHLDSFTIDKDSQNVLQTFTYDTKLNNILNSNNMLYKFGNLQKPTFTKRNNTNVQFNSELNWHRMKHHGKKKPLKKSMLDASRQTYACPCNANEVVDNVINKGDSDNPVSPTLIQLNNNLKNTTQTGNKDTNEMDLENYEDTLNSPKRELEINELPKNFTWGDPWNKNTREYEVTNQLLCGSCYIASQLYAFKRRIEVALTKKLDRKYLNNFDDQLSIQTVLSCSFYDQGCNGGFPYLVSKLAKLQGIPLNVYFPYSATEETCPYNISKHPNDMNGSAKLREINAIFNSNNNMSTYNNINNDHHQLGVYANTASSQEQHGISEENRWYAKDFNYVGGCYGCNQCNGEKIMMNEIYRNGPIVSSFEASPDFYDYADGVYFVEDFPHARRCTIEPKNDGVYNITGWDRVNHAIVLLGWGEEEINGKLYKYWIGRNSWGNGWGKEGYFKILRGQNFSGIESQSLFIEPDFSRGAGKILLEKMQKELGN

Row | SMILES | % Inhibition @ 10 uM [%]
1 | Cc1nc2scc(C)n2c(=O)c1S(=O)(=O)N1CCN(C)CC1 | 0.947
2 | CCCC(C)NS(=O)(=O)c1ccc(NC(C)=O)cc1 (centres unmarked) | -4.65
3 | O=C(O)c1cc(NC(=O)c2cccc([N+](=O)[O-])c2)cc(C(=O)O)c1 | -5.36
4 | O=C(/N=C1/SC2CS(=O)(=O)CC2N1c1ccccc1)c1ccc(Br)cc1 (centres unmarked) | -0.425
5 | COCC(=O)NC1CCN(Cc2ccccc2)CC1 | -3.77
6 | CCN(CC)S(=O)(=O)c1cccc(C(=O)Nc2ccc(C(=O)O)cc2)c1 | -1.74
7 | COc1cccc2c(C)nc(NC3=NCN(CCc4ccccc4)CN3)nc12 | 0.0539
8 | CCCOc1ccc(C(=O)Nc2ccc(N3CCN(S(C)(=O)=O)CC3)cc2)cc1 | 1.19
9 | O=C(NCCc1cccs1)c1ccc(CN2CC(=O)N3CCCCC3C2=O)cc1 (centres unmarked) | 4.67
10 | N#Cc1ccccc1CN1C(=O)S/C(=C/c2ccc(OCC(=O)O)c(Br)c2)C1=O | 4.06
11 | Cc1nc(-c2ccccc2)nc(-c2ccccc2)n1 | -2.59
12 | N=C1/C(=C\c2ccc(OCc3ccccc3)c(Cl)c2)C(=O)N=C2SC(N3CCOCC3)=NN12 | -5.51
13 | O=[N+]([O-])c1ccc(CN2CCSCC2)o1 | 3.1
14 | C1=NCCn2cccc21 | -4.61
15 | COc1cc(OC)cc(C(=O)N(CCCN(C)C)c2nc3c(OC)cccc3s2)c1 | -0.0255
16 | O=C1C2CCCCC2C(=O)N1CCc1c[nH]c2ccccc12 (centres unmarked) | 4.76
17 | Cc1c(C=O)c(C(=O)O)c(C)n1C | 6.13
18 | CCCCN(C)CCCNC(=O)C1CCN(Cc2nc(-c3ccc(Cl)cc3)oc2C)CC1 | -8.65
19 | Cc1ccc(OCCCCCCc2c(C)n[nH]c2C)cc1C | -0.351
20 | O=C(CCS(=O)(=O)c1ccc(Br)cc1)NC12CC3CC(CC(C3)C1)C2 | -2.5
21 | O=C(C(Cc1ccccc1)N1C(=O)C2C3C=CC(C3)C2C1=O)N1CCOCC1 (centres unmarked) | -0.551
22 | Cc1cc(C)n(-c2ncc(-c3ccc([N+](=O)[O-])cc3)cn2)n1 | 4.22
23 | CCOC(=O)C1=C(CC)OC(N)=C(C#N)C1c1cccc(Br)c1 (centres unmarked) | 3.1
24 | CC(CCc1ccccc1)NC(=O)c1[nH]nc2c1CCCC2 (centres unmarked) | 3.24
25 | CCN1CCN(Cc2c(NC(=O)c3ccccc3F)sc(C)c2C)CC1 | -1.04

Row | SMILES | % Inhibition @ 10 uM [%]
26 | CC1CCCCN1CCNC(=O)Cn1ncc2c3ccccc3n(Cc3ccccc3)c2c1=O (centres unmarked) | 14.6
27 | CC(=O)Nc1ccc(NC(=O)c2c([N+](=O)[O-])cnn2C)cc1 | -4.43
28 | Cc1ccc2c(c1)cc1c(=O)n(Cc3ccccc3Cl)ncn12 | 4.36
29 | OC1(c2cccs2)C[N+](c2ccccc2)=C2SCCCN21 (centres unmarked) | 3.36
30 | O=C1C=C(NCc2ccc3c(c2)OCO3)CC(c2ccccc2)C1 (centres unmarked) | -1.26
31 | COc1ccc(/C=C(/NC(=O)c2ccc(C)cc2)C(=O)N2CCCCC2)cc1OC | -3.06
32 | Cn1c(=O)c2c(nc(S)n2Cc2ccccc2)n(C)c1=O | -2.89
33 | Cc1onc(-c2ccccc2)c1C(=O)Nc1ccccc1F | 5.53
34 | Cc1cc(C)c2nc(N3CCCC(C(=O)NCCc4ccccc4)C3)sc2c1 (centres unmarked) | -3.35
35 | Cc1ccc(Nc2nc3cc(C)ccc3cc2C)c(C)c1 | 2.22
36 | C#CCOc1ccc2c(c1)c(C(C)=O)c(C)n2Cc1ccccc1 | 2.17
37 | Clc1ccc(Nc2nc(-c3ccccn3)cs2)cc1 | 4.26
38 | CCCC(C#CCN1CCCCC1)OC(C)=O (centres unmarked) | -0.342
39 | O=C1c2ccccc2C(=O)N1CN1CCCCCC1 | 2.76
40 | CC(CCCC(C)(C)O)NC1CC2CCC1C2 (centres unmarked) | 1.57
41 | O=C(NC1CCCCC1)N1CCN(c2ccc(C(F)(F)F)cn2)CC1 | -2.28
42 | O=C1NC(=S)N(c2ccc(Cl)cc2)C(=O)/C1=C/c1ccc(O)cc1 | -5.23
43 | COc1ccc(OC)c(/C=C(\C#N)c2nc3ccccc3[nH]2)c1 | -4.4
44 | CC1CC(C)CN(CCCNC(=O)Cn2ncc3c4ccccc4n(C)c3c2=O)C1 (centres unmarked) | 2.99
45 | CS(=O)(=O)N(CC(=O)NCCSc1ccccc1)c1ccccc1Cl | -8.92
46 | O=C(CCS(=O)(=O)Cc1cccc(Cl)c1)NCCc1ccccc1 | 2.18
47 | Cc1ccc(S(=O)(=O)c2cnc3c(F)cc(F)cc3c2O)cc1 | -1.7
48 | Cc1ccc(/N=C2\SC(C(=O)Nc3ccccc3F)CC(=O)N2C)cc1C (centres unmarked) | -3.25
49 | COc1ccc(CNS(=O)(=O)c2ccc3nc(O)ccc3c2)cc1 | 1.36
50 | COc1ccc(-c2nc3n(n2)C(c2cc(OC)ccc2OC)C2=C(O)CCCC2=N3)cc1 (centres unmarked) | 0.275
